From the supplement of paper PMC8728848
Some of the results follow.

Legend:
Test in all cases: glycan array binding signal (z-score within array); higher = stronger binding
Details in all cases: glycan notation: IUPAC condensed, linker removed
GlcNAc(b1-4)GlcNAc = target: GlcNAc(b1-4)GlcNAc
Summary of the method: (§1)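 Glycan array data came from 3228 arrays in the Consortium for Functional Glycomics database, and only arrays with an available protein sequence were kept. Glycan names were put into IUPAC-condensed notation, and columns mapping to the same glycan were averaged. The binding signal is a within-array Z-score, averaged across arrays of one protein sequence run at different concentrations or buffers and across linkers. A negative Z-score can be read as non-binding.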

[1] = target: GlcNAc(b1-4)GlcNAc(b1-4)GlcNAc
Summary of the method: as §1

[2] = target: GlcNAc(b1-4)GlcNAc(b1-4)GlcNAc(b1-4)GlcNAc(b1-4)GlcNAc
Summary of the method: as §1

[3] = target: GlcNAc(b1-4)GlcNAc(b1-4)GlcNAc(b1-4)GlcNAc(b1-4)GlcNAc(b1-4)GlcNAc
Summary of the method: as §1

[4] = target: GlcNAc(b1-4)[GlcNAc(b1-6)]GalNAc
Summary of the method: as §1

[5] = target: GlcNAc(b1-6)Gal(b1-4)GlcNAc
Summary of the method: as §1

GlcNAc(b1-6)GalNAc = target: GlcNAc(b1-6)GalNAc
Summary of the method: as §1

GlcNAc3Prop(b1-4)GlcNAc = target: GlcNAc3Prop(b1-4)GlcNAc
Summary of the method: as §1

Kdn(a2-3)Gal(b1-3)GlcNAc = target: Kdn(a2-3)Gal(b1-3)GlcNAc
Summary of the method: as §1

Kdn(a2-3)Gal(b1-4)GlcNAc = target: Kdn(a2-3)Gal(b1-4)GlcNAc
Summary of the method: as §1

[6] = target: Man(a1-2)Man(a1-2)Man(a1-3)Man
Summary of the method: as §1

[7] = target: Man(a1-2)Man(a1-2)Man(a1-6)[Man(a1-3)]Man
Summary of the method: as §1

Man(a1-2)Man(a1-3)Man = target: Man(a1-2)Man(a1-3)Man
Summary of the method: as §1

[8] = target: Man(a1-2)Man(a1-3)[Man(a1-2)Man(a1-6)]Man
Summary of the method: as §1

[9] = target: Man(a1-2)Man(a1-3)[Man(a1-2)Man(a1-6)]Man(a1-6)[Man(a1-2)Man(a1-2)Man(a1-3)]Man
Summary of the method: as §1

[10] = target: Man(a1-2)Man(a1-3)[Man(a1-2)Man(a1-6)]Man(a1-6)[Man(a1-2)Man(a1-2)Man(a1-3)]Man(b1-4)GlcNAc(b1-4)GlcNAc
Summary of the method: as §1

[11] = target: Man(a1-2)Man(a1-3)[Man(a1-2)Man(a1-6)]Man(a1-6)[Man(a1-3)[Man(a1-6)]Man(a1-6)]Man(b1-4)GlcNAc(b1-4)GlcNAc
Summary of the method: as §1

[12] = target: Man(a1-2)Man(a1-3)[Man(a1-6)]Man(a1-6)[Man(a1-2)Man(a1-3)]Man(b1-4)GlcNAc(b1-4)GlcNAc
Summary of the method: as §1

[13] = target: Man(a1-2)Man(a1-6)[Man(a1-3)]Man(a1-6)[Man(a1-2)Man(a1-2)Man(a1-3)]Man
Summary of the method: as §1

[14] = target: Man(a1-2)Man(a1-6)[Man(a1-3)]Man(a1-6)[Man(a1-2)Man(a1-2)Man(a1-3)]Man(b1-4)GlcNAc(b1-4)GlcNAc
Summary of the method: as §1

Man(a1-3)[Man(a1-6)]Man = target: Man(a1-3)[Man(a1-6)]Man
Summary of the method: as §1

[15] = target: Man(a1-3)[Man(a1-6)]Man(a1-6)[Man(a1-2)Man(a1-3)]Man(b1-4)GlcNAc(b1-4)GlcNAc
Summary of the method: as §1

[16] = target: Man(a1-3)[Man(a1-6)]Man(a1-6)[Man(a1-3)]Man
Summary of the method: as §1

[17] = target: Man(a1-3)[Man(a1-6)]Man(a1-6)[Man(a1-3)]Man(b1-4)GlcNAc(b1-4)GlcNAc
Summary of the method: as §1

[18] = target: Man(a1-3)[Man(a1-6)]Man(b1-4)GlcNAc(b1-4)GlcNAc
Summary of the method: as §1

Man(a1-6)Man = target: Man(a1-6)Man
Summary of the method: as §1

Man(b1-4)GlcNAc = target: Man(b1-4)GlcNAc
Summary of the method: as §1

Neu5Ac(a2-3)Gal = target: Neu5Ac(a2-3)Gal
Summary of the method: as §1

[19] = target: Neu5Ac(a2-3)Gal(b1-3)GalNAc
Summary of the method: as §1

[20] = target: Neu5Ac(a2-3)Gal(b1-3)GalNAc(b1-3)Gal(a1-4)Gal(b1-4)Glc
Summary of the method: as §1

[21] = target: Neu5Ac(a2-3)Gal(b1-3)GalNAc(b1-3)Gal(b1-4)GlcNAc
Summary of the method: as §1

[22] = target: Neu5Ac(a2-3)Gal(b1-3)GalNAc(b1-4)[Neu5Ac(a2-3)]Gal(b1-4)Glc
Summary of the method: as §1

[23] = target: Neu5Ac(a2-3)Gal(b1-3)GalNAc6S
Summary of the method: as §1

[24] = target: Neu5Ac(a2-3)Gal(b1-3)GlcNAc
Summary of the method: as §1

[25] = target: Neu5Ac(a2-3)Gal(b1-3)GlcNAc(b1-3)Gal(b1-3)GlcNAc
Summary of the method: as §1

[26] = target: Neu5Ac(a2-3)Gal(b1-3)GlcNAc6S
Summary of the method: as §1

[27] = target: Neu5Ac(a2-3)Gal(b1-3)[Fuc(a1-4)]GlcNAc
Summary of the method: as §1

[28] = target: Neu5Ac(a2-3)Gal(b1-3)[Fuc(a1-4)]GlcNAc(b1-3)Gal(b1-4)[Fuc(a1-3)]GlcNAc
Summary of the method: as §1

[29] = target: Neu5Ac(a2-3)Gal(b1-3)[Neu5Ac(a2-3)Gal(b1-4)]GlcNAc
Summary of the method: as §1

[30] = target: Neu5Ac(a2-3)Gal(b1-3)[Neu5Ac(a2-6)]GalNAc
Summary of the method: as §1

Neu5Ac(a2-3)Gal(b1-4)Glc = target: Neu5Ac(a2-3)Gal(b1-4)Glc
Summary of the method: as §1

[31] = target: Neu5Ac(a2-3)Gal(b1-4)GlcNAc
Summary of the method: as §1

[32] = target: Neu5Ac(a2-3)Gal(b1-4)GlcNAc(b1-2)Man(a1-3)[GlcNAc(b1-2)Man(b1-4)GlcNAc(b1-2)Man(a1-6)]Man(b1-4)GlcNAc(b1-4)GlcNAc
Summary of the method: as §1

[33] = target: Neu5Ac(a2-3)Gal(b1-4)GlcNAc(b1-2)Man(a1-3)[Neu5Ac(a2-6)Gal(b1-4)GlcNAc(b1-2)Man(a1-6)]Man(b1-4)GlcNAc(b1-4)GlcNAc
Summary of the method: as §1

[34] = target: Neu5Ac(a2-3)Gal(b1-4)GlcNAc(b1-3)Gal(b1-3)GlcNAc
Summary of the method: as §1

[35] = target: Neu5Ac(a2-3)Gal(b1-4)GlcNAc(b1-3)Gal(b1-4)GlcNAc
Summary of the method: as §1

[36] = target: Neu5Ac(a2-3)Gal(b1-4)GlcNAc(b1-3)Gal(b1-4)GlcNAc(b1-3)Gal(b1-4)GlcNAc
Summary of the method: as §1

[37] = target: Neu5Ac(a2-3)Gal(b1-4)GlcNAc(b1-3)Gal(b1-4)[Fuc(a1-3)]GlcNAc
Summary of the method: as §1

B1: CD83 (Homo sapiens) (protein)
chain: MSRGLQLLLLSCAYSLAPATPEVKVACSEDVDLPCTAPWDPQVPYTVSWVKLLEGGEERMETPQEDHLRGQHYHQKGQNGSFDAPNERPYSLKIRNTTSCNSGTYRCTLQDPDGQRNLSGKVILRVTGCPAQRKEETFKKYRAETSEQKLISEEDLSRGSDDDDKAEPRGP
GlcNAc(b1-4)GlcNAc
  glycan array binding signal (z-score): -0.248
[1]
  glycan array binding signal (z-score): -0.372
[2]
  glycan array binding signal (z-score): 0.065
[3]
  glycan array binding signal (z-score): 0.143
[4]
  glycan array binding signal (z-score): -0.429
[5]
  glycan array binding signal (z-score): -0.188
GlcNAc(b1-6)GalNAc
  glycan array binding signal (z-score): -0.436
GlcNAc3Prop(b1-4)GlcNAc
  glycan array binding signal (z-score): -0.313
Kdn(a2-3)Gal(b1-3)GlcNAc
  glycan array binding signal (z-score): -0.365
Kdn(a2-3)Gal(b1-4)GlcNAc
  glycan array binding signal (z-score): 0.312
[6]
  glycan array binding signal (z-score): 0.605
[7]
  glycan array binding signal (z-score): -0.333
Man(a1-2)Man(a1-3)Man
  glycan array binding signal (z-score): -0.122
[8]
  glycan array binding signal (z-score): -0.021
[9]
  glycan array binding signal (z-score): -0.09
[10]
  glycan array binding signal (z-score): 2.96
[11]
  glycan array binding signal (z-score): 2.48
[12]
  glycan array binding signal (z-score): 0.888
[13]
  glycan array binding signal (z-score): -0.272
[14]
  glycan array binding signal (z-score): 1.64
Man(a1-3)[Man(a1-6)]Man
  glycan array binding signal (z-score): -0.106
[15]
  glycan array binding signal (z-score): 11.7
[16]
  glycan array binding signal (z-score): -0.285
[17]
  glycan array binding signal (z-score): 0.723
[18]
  glycan array binding signal (z-score): -0.201
Man(a1-6)Man
  glycan array binding signal (z-score): -0.345
Man(b1-4)GlcNAc
  glycan array binding signal (z-score): -0.203
Neu5Ac(a2-3)Gal
  glycan array binding signal (z-score): -0.105
[19]
  glycan array binding signal (z-score): -0.061
[20]
  glycan array binding signal (z-score): 0.647
[21]
  glycan array binding signal (z-score): -0.209
[22]
  glycan array binding signal (z-score): 0.069
[23]
  glycan array binding signal (z-score): -0.173
[24]
  glycan array binding signal (z-score): -0.246
[25]
  glycan array binding signal (z-score): -0.102
[26]
  glycan array binding signal (z-score): 8.93
[27]
  glycan array binding signal (z-score): -0.283
[28]
  glycan array binding signal (z-score): -0.081
[29]
  glycan array binding signal (z-score): -0.458
[30]
  glycan array binding signal (z-score): 0.241
Neu5Ac(a2-3)Gal(b1-4)Glc
  glycan array binding signal (z-score): -0.155
[31]
  glycan array binding signal (z-score): -0.186
[32]
  glycan array binding signal (z-score): -0.215
[33]
  glycan array binding signal (z-score): -0.335
[34]
  glycan array binding signal (z-score): -0.299
[35]
  glycan array binding signal (z-score): -0.176
[36]
  glycan array binding signal (z-score): -0.448
[37]
  glycan array binding signal (z-score): -0.41
